Results from publication PMC5829230, “G-protein βγ subunits determine grain size through interaction with MADS-domain transcription factors in rice”.
No constants are given. Whether binding was seen depends on the method and setting. For part of these data: In cells and extracts the contact can be indirect. Some binding calls cover weakened binding; strength is not graded here. For part of these data: Tags and fused reporters may be left off the sequences shown.

Sequences of proteins named here, by UniProt entry; tags and fusion partners are left off. A change or cut given only in a name is not applied to a line headed by its entry.
UniProt Q10PZ9: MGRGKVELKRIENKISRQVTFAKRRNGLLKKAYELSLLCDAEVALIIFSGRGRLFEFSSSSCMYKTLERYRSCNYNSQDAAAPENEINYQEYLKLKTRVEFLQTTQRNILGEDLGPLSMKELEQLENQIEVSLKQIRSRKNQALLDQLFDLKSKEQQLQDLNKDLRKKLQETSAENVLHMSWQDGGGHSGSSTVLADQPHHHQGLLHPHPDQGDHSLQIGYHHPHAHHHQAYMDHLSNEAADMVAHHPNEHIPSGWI

Columns and labels:
Flag-DEP1 (rice) = target: T1, Flag-DEP1 (rice) (UniProt Q67UU9); experiment: co-IP; Flag- and HA-tagged proteins in transfected A. thaliana protoplasts; lysate in 50 mM HEPES pH 7.5, 150 mM KCl, 1 mM EDTA, 0.5% Triton X-100, 1 mM DTT; Flag M2 Affinity Gel at 4 °C, eluted with 3x Flag peptide, blot with anti-HA
T1 sequence: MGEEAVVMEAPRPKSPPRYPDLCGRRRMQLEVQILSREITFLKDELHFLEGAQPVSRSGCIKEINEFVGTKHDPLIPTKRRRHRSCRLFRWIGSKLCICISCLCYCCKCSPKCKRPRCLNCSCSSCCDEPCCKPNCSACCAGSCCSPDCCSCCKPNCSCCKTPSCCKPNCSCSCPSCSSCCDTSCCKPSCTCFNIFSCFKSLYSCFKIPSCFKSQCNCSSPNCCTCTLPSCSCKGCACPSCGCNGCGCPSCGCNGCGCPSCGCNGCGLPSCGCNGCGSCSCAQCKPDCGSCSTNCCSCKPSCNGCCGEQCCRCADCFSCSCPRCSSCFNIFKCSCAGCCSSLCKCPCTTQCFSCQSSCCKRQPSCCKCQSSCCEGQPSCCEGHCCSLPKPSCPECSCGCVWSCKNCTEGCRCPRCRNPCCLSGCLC

[1] = target: T2, nLUC-tagged RGA1, rice Gα subunit (rice) (UniProt Q0DJ33); experiment: split reporter; split firefly luciferase complementation (SFLC): nLUC and cLUC fusions with the p19 silencing plasmid co-transfected into N. benthamiana leaves by Agrobacterium infiltration; leaves detached after 36-48 h, sprayed with 1 mM luciferin, LUC signal by cooled CCD
T2 sequence: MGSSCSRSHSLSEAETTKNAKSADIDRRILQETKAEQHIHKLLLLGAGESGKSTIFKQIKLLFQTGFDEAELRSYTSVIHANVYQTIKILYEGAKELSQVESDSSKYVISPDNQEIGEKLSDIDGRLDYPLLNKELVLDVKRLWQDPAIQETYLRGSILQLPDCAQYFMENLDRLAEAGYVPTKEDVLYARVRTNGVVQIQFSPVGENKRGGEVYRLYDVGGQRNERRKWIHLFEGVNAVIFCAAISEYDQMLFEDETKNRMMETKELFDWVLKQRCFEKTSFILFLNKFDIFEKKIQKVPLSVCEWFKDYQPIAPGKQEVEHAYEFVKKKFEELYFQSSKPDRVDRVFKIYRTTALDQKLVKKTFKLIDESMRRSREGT

nLUC-tagged DEP1 (rice) = target: T3, nLUC-tagged DEP1 (rice) (UniProt Q67UU9); experiment: as above
T3 sequence: T1 sequence

[2] = target: T4, nLUC-tagged RGG1, rice canonical Gγ subunit (rice) (UniProt Q75WU1); experiment: as above
T4 sequence: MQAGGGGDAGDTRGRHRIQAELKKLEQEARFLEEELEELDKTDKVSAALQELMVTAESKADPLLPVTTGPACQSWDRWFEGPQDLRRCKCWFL

[3] = target: T5, nLUC-tagged RGB1, rice Gβ subunit (rice) (UniProt Q40687); experiment: as above
T5 sequence: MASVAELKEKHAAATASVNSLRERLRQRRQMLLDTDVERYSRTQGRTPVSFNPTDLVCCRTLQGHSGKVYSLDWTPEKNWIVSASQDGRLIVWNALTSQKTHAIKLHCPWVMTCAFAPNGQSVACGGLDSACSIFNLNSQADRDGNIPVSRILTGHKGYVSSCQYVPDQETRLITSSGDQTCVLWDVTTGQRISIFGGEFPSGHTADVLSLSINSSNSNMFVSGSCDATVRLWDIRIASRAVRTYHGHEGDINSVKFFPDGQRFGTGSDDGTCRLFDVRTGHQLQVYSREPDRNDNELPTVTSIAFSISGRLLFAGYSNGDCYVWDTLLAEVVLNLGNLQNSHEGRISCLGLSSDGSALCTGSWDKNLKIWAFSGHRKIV

[4] = target: T6, nLUC-tagged RGG2, rice canonical Gγ subunit (rice) (UniProt Q6YXX9); experiment: as above
T6 sequence: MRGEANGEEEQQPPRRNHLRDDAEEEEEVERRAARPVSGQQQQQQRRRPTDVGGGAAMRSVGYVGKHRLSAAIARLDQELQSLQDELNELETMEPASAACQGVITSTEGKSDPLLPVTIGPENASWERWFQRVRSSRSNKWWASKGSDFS

[5] = target: T7, DEP1 (DENSE AND ERECT PANICLE1), rice G-protein γ subunit, in pGBKT7 (rice) (UniProt Q67UU9); experiment: two-hybrid; DEP1 or dep1-1 in pGBKT7, OsMADS1 in pGADT7, yeast strain AH109, β-galactosidase assays; dep1-1 also used as bait to screen a cDNA library of young panicles
T7 sequence: T1 sequence

cLUC-DEP1 (rice) = target: T8, cLUC-DEP1 (rice) (UniProt Q67UU9); experiment: split reporter; split firefly luciferase complementation (SFLC): nLUC and cLUC fusions with the p19 silencing plasmid co-transfected into N. benthamiana leaves by Agrobacterium infiltration; leaves detached after 36-48 h, sprayed with 1 mM luciferin, LUC signal by cooled CCD
T8 sequence: T1 sequence

[6] = target: T9, rice DELLA protein SLR1 (positive control of the SFLC assay) (rice) (UniProt Q7G7J6); experiment: as above
T9 sequence: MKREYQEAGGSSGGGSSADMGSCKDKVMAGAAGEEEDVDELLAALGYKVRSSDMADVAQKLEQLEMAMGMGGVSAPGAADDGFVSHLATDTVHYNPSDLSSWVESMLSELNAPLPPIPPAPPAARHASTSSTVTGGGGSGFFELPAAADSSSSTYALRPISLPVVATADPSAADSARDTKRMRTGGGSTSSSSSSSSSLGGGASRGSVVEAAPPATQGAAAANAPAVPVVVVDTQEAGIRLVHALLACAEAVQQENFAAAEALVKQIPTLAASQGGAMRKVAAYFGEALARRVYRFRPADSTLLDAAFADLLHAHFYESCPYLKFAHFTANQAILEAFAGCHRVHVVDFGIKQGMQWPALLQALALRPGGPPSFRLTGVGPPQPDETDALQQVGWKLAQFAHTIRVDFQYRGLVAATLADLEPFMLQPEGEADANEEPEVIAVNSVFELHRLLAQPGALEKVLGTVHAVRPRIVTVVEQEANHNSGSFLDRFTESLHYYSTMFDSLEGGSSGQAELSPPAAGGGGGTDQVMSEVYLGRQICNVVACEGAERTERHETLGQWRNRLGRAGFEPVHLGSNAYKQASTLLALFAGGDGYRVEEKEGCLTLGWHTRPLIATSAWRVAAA

HA-OsMADS1 (from UniProt Q10PZ9 1-257)
binding (Flag-DEP1 (rice)): binds

cLUC-targeted OsMADS1 (from UniProt Q10PZ9 1-257)
binding [1]: no binding | binding (nLUC-tagged DEP1 (rice)): binds | binding [2]: binds | binding [3]: binds | binding [4]: binds

OsMADS1 (LGY3), MADS-domain transcription factor, in pGADT7 (from UniProt Q10PZ9 1-257)
binding [5]: binds

nLUC-tagged OsMADS1 (non-deleted version) (from UniProt Q10PZ9 1-257)
binding (cLUC-DEP1 (rice)): binds

B1: rice GA receptor GID1 (positive control of the SFLC assay) (receptor, UniProt Q6L545 1-354)
chain: MAGSDEVNRNECKTVVPLHTWVLISNFKLSYNILRRADGTFERDLGEYLDRRVPANARPLEGVSSFDHIIDQSVGLEVRIYRAAAEGDAEEGAAAVTRPILEFLTDAPAAEPFPVIIFFHGGSFVHSSASSTIYDSLCRRFVKLSKGVVVSVNYRRAPEHRYPCAYDDGWTALKWVMSQPFMRSGGDAQARVFLSGDSSGGNIAHHVAVRAADEGVKVCGNILLNAMFGGTERTESERRLDGKYFVTLQDRDWYWKAYLPEDADRDHPACNPFGPNGRRLGGLPFAKSLIIVSGLDLTCDRQLAYADALREDGHHVKVVQCENATVGFYLLPNTVHYHEVMEEISDFLNANLYY
binding [6]: binds
